Measurements from article PMC4336329 (PLoS ONE, 2015).
Hit rate of the full screen: of about 310,000 compounds, about 2,200 (0.71%) showed an effect of 50% or more. Effects have a minus sign here. Some of the results follow.

Molecular target: human ether-à-go-go-related gene (hERG) potassium channel (human, UniProt Q12809)
Experiment: primary screen, population patch clamp on CHO cells stably expressing hERG

human ether-à-go-go-related gene (hERG) potassium channel, sequence (Q12809 whole entry, looked up): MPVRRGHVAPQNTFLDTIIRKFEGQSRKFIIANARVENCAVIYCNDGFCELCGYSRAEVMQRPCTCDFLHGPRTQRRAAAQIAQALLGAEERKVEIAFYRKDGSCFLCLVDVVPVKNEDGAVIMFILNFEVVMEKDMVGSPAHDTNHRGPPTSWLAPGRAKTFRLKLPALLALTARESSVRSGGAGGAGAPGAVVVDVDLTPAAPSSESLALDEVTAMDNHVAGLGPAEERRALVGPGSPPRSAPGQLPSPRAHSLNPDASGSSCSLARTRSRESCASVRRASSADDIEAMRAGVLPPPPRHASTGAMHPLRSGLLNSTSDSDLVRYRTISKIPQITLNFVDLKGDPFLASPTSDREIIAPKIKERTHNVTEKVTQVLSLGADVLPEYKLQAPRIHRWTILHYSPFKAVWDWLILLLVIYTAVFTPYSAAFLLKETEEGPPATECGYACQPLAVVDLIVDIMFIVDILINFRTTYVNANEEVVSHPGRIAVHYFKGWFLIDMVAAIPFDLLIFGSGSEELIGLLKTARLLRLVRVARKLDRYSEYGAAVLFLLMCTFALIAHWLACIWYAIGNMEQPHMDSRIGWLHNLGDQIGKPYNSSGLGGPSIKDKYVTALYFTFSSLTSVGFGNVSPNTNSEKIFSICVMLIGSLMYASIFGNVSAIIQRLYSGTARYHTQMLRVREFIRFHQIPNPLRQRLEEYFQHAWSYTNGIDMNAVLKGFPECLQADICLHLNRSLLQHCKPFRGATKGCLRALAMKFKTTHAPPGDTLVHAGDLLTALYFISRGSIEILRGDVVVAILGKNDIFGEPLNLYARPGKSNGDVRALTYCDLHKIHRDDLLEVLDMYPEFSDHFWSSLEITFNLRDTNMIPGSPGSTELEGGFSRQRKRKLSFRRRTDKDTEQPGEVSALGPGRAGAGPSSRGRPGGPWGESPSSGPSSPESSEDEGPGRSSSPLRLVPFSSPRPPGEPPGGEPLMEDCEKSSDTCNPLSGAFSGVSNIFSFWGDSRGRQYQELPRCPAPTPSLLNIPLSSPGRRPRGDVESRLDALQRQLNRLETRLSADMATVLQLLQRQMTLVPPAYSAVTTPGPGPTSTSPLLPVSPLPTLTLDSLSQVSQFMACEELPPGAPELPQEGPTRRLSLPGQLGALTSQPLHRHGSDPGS

Compound | hERG current change (%, negative = inhibition) at 1uM
CCCCCC(=O)N1CCCC(c2nc(-c3ccc(OC)cc3)no2)C1 (stereo not shown) | 10.8%
C=CCOn1c(=O)c(-c2ccccc2)[n+]([O-])c2ccccc21 | 9.99%
CCc1c(C)nc(SCc2cccnc2)[nH]c1=O | 4.12%
Cc1nc(-c2ccc(C(=O)Nc3cccc(F)c3)cc2)cs1 | 16.2%
Cc1cc(C)nc(SCc2cn3ccccc3n2)n1 | 11.5%
CCn1c(-c2cc(-c3cc(OC)ccc3OC)nc3ccccc23)n[nH]c1=S | 1.44%
N#Cc1c(Cl)nc(N/N=C/c2ccccc2)c(Cl)c1Cl | 9.85%
CC(=O)Oc1ccc(C(=O)Cc2ccc3ccccc3n2)c(O)c1C | 17.5%
CCCC(=O)NC(NC(=S)Nc1ccc(N=Nc2ccccc2)cc1)C(Cl)(Cl)Cl (stereo not shown) | 15.4%
Nc1nc2n(n1)C(c1ccc(Cl)cc1)CC(c1ccc(F)cc1)N2 (stereo not shown) | 0.762%
CN(C)c1ccc(NC(=O)CN2CCC(C(=O)c3ccc(F)cc3)CC2)cc1 | -4.93%
N#Cc1cnn(-c2ccccc2)c1N | 14.1%
COc1ccc(C2C=C(c3ccc(Br)s3)Nc3ncnn32)cc1OC (stereo not shown) | -2.99%
O=C1Nc2ccccc2Sc2ccccc21 | 9.65%
CC(C)(C)NC(=O)CSc1nnc(-c2ccncc2)n1Cc1ccccc1 | 6.76%
CC(NC(=O)C(=O)N/N=C/c1ccc(Cl)cc1)c1ccccc1 (stereo not shown) | -18.6%
Cc1cc(Cl)ccc1NC(=O)CCC(=O)N/N=C/c1cc([N+](=O)[O-])ccc1O | 9.07%
O=C(CC1(C(F)(F)F)OCCO1)Nc1ccc2c(c1)OCO2 | 8.25%
COc1ccc(NS(=O)(=O)c2cccc(C(=O)N3CCCC3)c2)cc1 | 8.8%
COc1ccc(C(=O)Nc2cc3c(cc2OC)CCCC3)cc1Br | 11.1%
CCN(CC)CCCn1c2c(c(SCC(=O)Nc3cccc4ccccc34)nc1=O)CCC2 | -7.84%
C/C(=N\Nc1nccnc1Cl)c1c(F)c(F)c(F)c(F)c1F | 0.297%
CC(C)CC(NC(=O)C1CCCCC1)C(=O)N1CCN(c2ccccn2)CC1 (stereo not shown) | 5.87%
Cc1ccc(-n2c(N)c(C(=O)N3CCOCC3)sc2=S)c(C)c1 | 7.12%
COc1ccc(-c2cc(=O)[nH]c(NCc3ccccc3)n2)cc1 | 4.82%
